Data from article PMC9574860, “Chemical Toolkit for PARK7: Potent, Selective, and High-Throughput” (Journal of Medicinal Chemistry, 2022).
Hit rate of the full screen: of about 7,900 compounds, about 400 (5.1%) showed an effect of 50% or more. The list shows a part of the results.

Molecular target: Parkinson's disease protein 7 (PARK7/DJ1) (human, UniProt Q99497)
Test: primary screen, percent inhibition; read as competition with a fluorescent probe by fluorescence polarization; higher = more effect of the substance
Details: 100 µM
Description: The screen was conducted using the conditions as described above in 1536-well plates (Corning 3724) with a reaction volume of 8 μL per well. The compound library containing 7887 covalent fragments was purchased at Enamine Ltd. and received as 100 mM DMSO stocks in 384 well LDV Echo plates (Labcyte LP-0200). Stock solutions of 0.26 μM PARK7 and 80 nM JYQ-107 were prepared. Using a Labcyte Echo550 acoustic dispenser, 8 nL of the DMSO stock solution of the library compounds was transferred from the source plates into the empty 1536-well screening plates to obtain a 100 μM final compound concentration. Next, PARK7 (6 μL, final concentration 0.2 μM) was dispensed using a Biotek MultiflowFX liquid dispenser and incubated for 2 h, followed by dispensing the probe JYQ-107 (2 μL, final concentration 20 nM). After 2 h incubation, the FP signal was recorded on a BMG Labtech PHERAstar plate reader (λex/em 480/520 nm). The relative loss of FP signal compared with reference controls was used to calculate the remaining enzyme activity.

Chain of Parkinson's disease protein 7 (PARK7/DJ1) (Q99497 whole entry, looked up): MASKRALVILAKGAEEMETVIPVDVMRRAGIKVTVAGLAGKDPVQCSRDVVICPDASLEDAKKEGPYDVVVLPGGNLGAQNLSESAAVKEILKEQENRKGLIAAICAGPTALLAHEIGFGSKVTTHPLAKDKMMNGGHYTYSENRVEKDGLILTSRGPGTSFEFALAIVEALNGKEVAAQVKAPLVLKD

Row | Compound | Inhibition % [%]
1 | C=CC(=O)NCCc1nnc(C)s1 | 8.54
2 | Cl.N#Cc1csc(CN)n1 | 7.59
3 | C=CC(=O)NCCN1CC2CCCCN2C1=O (centres unmarked) | 17.5
4 | CN(C(=O)CCl)c1nc2ccccc2s1 | 3.42
5 | C=CC(=O)N1CCCC1c1noc(CC)n1 (centres unmarked) | 9.67
6 | COc1ccc(C(=O)CCl)c2c1C(=O)CO2 | 64.2
7 | CC(NC(=O)Cn1cnc(C#N)n1)c1ccc(F)cc1 (centres unmarked) | 4.98
8 | Cc1[nH]c(S)nc(=O)c1C1CC1 | 6.61
9 | C=CC(=O)Nc1cccc2c1CCN2S(C)(=O)=O | 4.97
10 | CC(C)(C)OC(=O)N1CC(CB2OC(C)(C)C(C)(C)O2)C1 | -1.81
11 | O=C(NCC1(c2ccncc2)CC1)c1cccnc1S | 5.98
12 | C=CC(=O)NC1(C)CCC(C)CC1 (centres unmarked) | 29.1
13 | CC(C#N)(NC(=O)CCl)C1CC1 (centres unmarked) | 23.6
14 | C=CC(=O)NCC1c2ccccc2C(=O)N1C (centres unmarked) | 7.14
15 | C=CC(=O)NCc1ccc2ccccc2n1 | -0.809
16 | O=C1OCCC1Sc1nc2ccccc2[nH]1 (centres unmarked) | 5.18
17 | N#CC(=CN1CCOCC1)c1ccccc1 | 3.68
18 | Cc1c(C#N)nn(-c2cccnc2)c1N | 10
19 | C=CC(=O)N1CCOC(C)(COC)C1 (centres unmarked) | -1.67
20 | C=CC(=O)NCCCN1CCc2ccccc2C1 | 10.8
21 | Cc1ccc(S(=O)(=O)OCC2CCCO2)cc1 (centres unmarked) | 11.3

Row | Compound | Inhibition % [%]
22 | N#CC(C(=O)N1CCCCC1)=C1N=C(N)c2ccccc21 | 10.2
23 | CNC(=O)C(C#N)=Cc1cc(C)n(-c2cc(C)on2)c1C | 4.49
24 | C=CC(=O)N1CC(CC)(c2ccccc2)C1 | 4.4
25 | C=CC(=O)N1CCN(c2c(F)cccc2OC)CC1 | 12
26 | C=CC(=O)NC1CCN(CC2CCOC2)CC1 (centres unmarked) | 7.79
27 | C=CC(=O)NC1CCc2cnn(C(C)C)c2C1 (centres unmarked) | 16
28 | CC1NC(=O)CCC1Nc1ccc(C(F)(F)F)c(C#N)n1 (centres unmarked) | 15.4
29 | C=CC(=O)NC1COc2c(C)cccc2C1 (centres unmarked) | 10.9
30 | N#CCc1ccc(NC(=O)CCl)cc1 | 88.8
31 | O=c1[nH]c(-c2ccc(S(=O)(=O)F)cc2)nc2sc3c(c12)CCC3 | 15.9
32 | C=CC(=O)Nc1cc(Cl)c(OC)cc1OC | 27.2
33 | O=C(CCl)NNC(=O)C1COc2ccccc2O1 (centres unmarked) | -4.99
34 | C=CC(=O)Nc1cc(C)nn1C1CCOCC1 | 11.4
35 | CC1CC(N(C)Cc2cccc(F)c2)C(=O)O1 (centres unmarked) | 10.2
36 | C=CC(=O)NC12CC1COC2(C)C (centres unmarked) | 7.43
37 | N#CNc1ccccc1Cl | 10.4
38 | O=C(CCl)N1CCC(c2ccccc2)=N1 | 90.5
39 | O=C(CCl)N1CCN(Cc2ccc3c(c2)OCCO3)CC1 | 15.8
40 | Cc1ccc(CN(C)C2CCOC2=O)cc1 (centres unmarked) | 4.59
41 | NC(=O)Cc1ccc(C(=O)CCl)s1 | 97.4
42 | O=C1CN(S(=O)(=O)C=Cc2ccccc2)CCN1 | 2.81

Row | Compound | Inhibition % [%]
43 | N#CC(=Cc1cccc(Oc2ccccc2)c1)C(N)=O | 4.25
44 | O=C(CCl)N1CCCCC1 | 11.2
45 | CC1(S(=O)(=O)NC2CN(c3ccc(F)cc3)C2=O)CC1 (centres unmarked) | 10.3
46 | Cc1ccccc1OCC1CO1 (centres unmarked) | 13.4
47 | COC(=O)Cc1csc(NC(=O)CCl)n1 | 20.2
48 | N#Cc1nnc2ccccc2c1Cl | 10.1
49 | N#CC(=Cc1cnn(-c2ccc(Cl)cc2)c1)C(=O)O | 23.2
50 | O=c1[nH]c(S)nc2ccsc12 | 7.43
51 | N#Cc1cc2c(nc1S)CCCC2 | 8.71
52 | N#CC(=CC=Cc1ccccc1)C(=O)NC1CC1 | 0.974
53 | C=CC(=O)NCC1COc2ccccc21 (centres unmarked) | 8.08
54 | CC(C)(C)C1CCc2c(sc(NC(=O)CCl)c2C#N)C1 (centres unmarked) | 2.27
55 | CC1=NOC(=O)C1CCC(=O)O (centres unmarked) | 8.64
56 | C=CC(=O)NC(C1CCC1)C1CCC1 | 8.44
57 | Cc1cc(S)nc(C)n1 | 41.7
58 | Cc1ccc(C=C(C#N)c2nc3ccccc3[nH]2)o1 | 43.8
59 | N#Cc1cc(C(=O)N2C[C@@H](F)C[C@H]2CO)c[nH]1 | 13.8
60 | CC1CC(N2CCCC2Cn2cncn2)C(=O)O1 (centres unmarked) | 22
61 | NCC1CCN(C(=O)C=Cc2ccc3ccccc3n2)C1 (centres unmarked) | 5.25
62 | C=CC(=O)NCc1ccc(F)cc1 | -22.1
